The test addresses human IL-13 (human).

The text below walks through data of US7935343B2.

Chain of human IL-13 (human) (chain, as listed by the source): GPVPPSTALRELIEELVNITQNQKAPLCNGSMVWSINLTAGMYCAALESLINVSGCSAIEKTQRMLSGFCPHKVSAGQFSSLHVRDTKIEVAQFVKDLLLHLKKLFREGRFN

B1: BAK167A11 scFv (scFv, V domains shown)
VH: [in this place about 100 residues]VGAAGEGYYGYWGRGTLVTVSS
VL: NFMLTQPHSVSESPGKTVTISCTRSSGSIASNYVQWYQQRPGSAPTTVIYDDNQRPSGVPDRFSGSIDSSSNSASLTISGLKTEDEADYYCQSYDSNNDVFGGGTKVTVL
B1 had an IC50, TF-1 cell proliferation of 111 nM.
